The source gives no read counts; variants with many changes may rest on few reads.
B1: CPEB3 Ribozyme (parent)
chain: UAACAGGGGGCCACAGCAGAAGCGUUCACGUCGCAGCCCCUGUCAGAUUCUGGUGAAUCUGCGAAUUCUGCUGUAUAUCUC

Variants of: B1
Assay: self-cleavage, relative activity (ratio to wild type); higher = more cleavage; in vitro, sequencing
Summary of the method: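 Relative activity compares each variant's cleaved/total read fraction with that of the unmutated ribozyme. To get these fractions, barcoded CPEB3 ribozyme libraries from rounds of error-prone PCR were transcribed with T7 RNA polymerase for 5 hours at 37°C and then given 15 min of DNase I treatment before EDTA was added. The RNAs were reverse transcribed with template switching and sequenced on Illumina, and DNA sequencing linked barcodes to variants. A minimum of 5 reads applied, and three batches were averaged.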

Row | Variant | self-cleavage
1 | A3G A28G A35U | 0.22
2 | A3G A28G A64U | 0.36
3 | A3G A28G C38A A47G C68A | 0.22
4 | A3G A28G C44G A45G | 0.23
5 | A3G A28G G42A U48C U67C C71G U74A | 0.06
6 | A3G A28G U41A U80C | 0.06
7 | A3G A28G U41C A45U | 0.69
8 | A3G A28U G33U | 0.31
9 | A3G A28U U41A | 0.08
10 | A3G A35C C50G U51C U67A U72C | 0.27
11 | A3G A35G A47G | 1.23
12 | A3G A35G A47G U72C | 1.23
13 | A3G A35G C44A A65C U69A U72C U76C | 0.36
14 | A3G A35U A45G U60A | 0.26
15 | A3G A35U A64U U67C | 0.29
16 | A3G A35U A64U U76A U78C | 0.16
17 | A3G A35U U54A A56G A64G | 0.44
18 | A3G A35U U54A G70C A77G | 0.24
19 | A3G A35U U54C | 0.46
20 | A3G A45G U51A U80C | 0.69
21 | A3G A45G U51C U74C U80C | 1
22 | A3G A45G U54C | 1.09
23 | A3G A45U A57U U78C | 0.11
24 | A3G A47G A56G | 1.12

Row | Variant | self-cleavage
25 | A3G A47G A75G | 0.99
26 | A3G A47G U49C U78C | 0.55
27 | A3G A47G U78C | 0.79
28 | A3G A47U U48C A64G | 0.22
29 | A3G A47U U54C A64G | 0.25
30 | A3G A56G U80C | 0.84
31 | A3G A56U U76C | 0.65
32 | A3G A56U U80A | 0.31
33 | A3G A64G A65U | 0.15
34 | A3G A64U U76G | 0.12
35 | A3G C4G A15U U26C U54C U60C | 0.34
36 | A3G C4U A5G A35C A64G U67C U69C | 0.25
37 | A3G C4U G10A U66A | 0.31
38 | A3G C4U G19U A20G U26C C40U | 0.12
39 | A3G C11A U31C A45U U54C | 0.07
40 | A3G C11G A13U G52U G61A U69C U80A | 0.13
41 | A3G C11G U25C U31A U60C | 0.05
42 | A3G C11U A13G U26C G61A U76C | 0.3
43 | A3G C11U A15G U41A U72C | 0.42
44 | A3G C11U A57G | 0.23
45 | A3G C11U C39U U72C | 0.37
46 | A3G C12A A13C C29U A35G | 0.46
47 | A3G C12A A21G A28U | 0.7
48 | A3G C12A U49C U67C | 0.21

Row | Variant | self-cleavage
49 | A3G C14G A75C U78C | 1.04
50 | A3G C14U A21U U43G | 0.48
51 | A3G C14U G19A U43C A45U U58C U72C | 0.06
52 | A3G C17G A47G U58C U60A A64U U80C | 0.54
53 | A3G C17G U54C U78A | 0.09
54 | A3G C17U A35U | 0.63
55 | A3G C17U U54C A65G | 0.35
56 | A3G C17U U76A | 1.01
57 | A3G C23A U72C | 0.62
58 | A3G C23G A35G C40U U54C U72G | 0.28
59 | A3G C23U U43A A56G | 0.18
60 | A3G C23U U51A A57G | 0.36
61 | A3G C27A C29A | 0.47
62 | A3G C27A C32A U72C | 0.08
63 | A3G C27A C34G U51A U74C | 0.45
64 | A3G C27U U31C C34A A45C G63C U69C | 0.21
65 | A3G C29A U41C G52C U72C | 0.34
66 | A3G C29A U66C | 0.24
67 | A3G C29G U51C A57G U69A | 0.36
68 | A3G C29G U51C A57G U69A G70U | 0.09
69 | A3G C29U A45U U60A | 0.72
70 | A3G C29U A47U G53C A64G U76A | 0.07
71 | A3G C32U C38A A64G A77U | 0.06
72 | A3G C34A U41A U76A | 0.27

Row | Variant | self-cleavage
73 | A3G C34G A35C | 0.16
74 | A3G C34U U66A U74A | 0.36
75 | A3G C37A U41A A45G A65U A75U | 0.23
76 | A3G C38A G42A A45G A47G A56G C79A | 0.04
77 | A3G C38A U60C C62G U66C A77G | 0.09
78 | A3G C38U U54C A75G | 0.22
79 | A3G C40U U69A | 0.43
80 | A3G C62A G63U U72A | 0.24
81 | A3G C68U U74C | 1.04
82 | A3G G6A A28G U41A A64U U72C | 0.05
83 | A3G G6A A28G U51C U78A | 0.25
84 | A3G G6A A28U C37U U66C | 0.25
85 | A3G G6A A35U U51A U67A U69A | 0.07
86 | A3G G6A A35U U60C C62U U69A U72C | 0.13
87 | A3G G6A G19A | 0.09
88 | A3G G6A U25C A56G U60A U69A | 0.04
89 | A3G G6A U25C A57G | 0.44
90 | A3G G6A U26C G33A U54A A56G | 0.04
91 | A3G G6A U41A C62U | 0.06
92 | A3G G6C G16C U69A | 0.32
93 | A3G G7A A35G | 0.38
94 | A3G G7A U25C A64G | 0.23
95 | A3G G7A U67G | 0.06
96 | A3G G7C A15G A20G | 0.16

Row | Variant | self-cleavage
97 | A3G G7C A45G U49A U58G U78C | 0.17
98 | A3G G7C U25C A45C | 0.1
99 | A3G G7C U26G U54C | 0.08
100 | A3G G7U A13G U31C A45C A57G A77G | 0.09
101 | A3G G7U A15U C23U C38U U49C U80A | 0.04
102 | A3G G7U A21U U43A G52C U60A U80C | 0.06
103 | A3G G7U C11G U25C | 0.25
104 | A3G G7U U51C | 0.57
105 | A3G G8A A18U G63A U66C U74C | 0.25
106 | A3G G8A A20C A56U A75G | 0.2
107 | A3G G8A A28U A45G U67C A75U | 0.18
108 | A3G G8A A65G | 0.09
109 | A3G G8A A75G U76C | 0.09
110 | A3G G8A C34U A57U U74A | 0.05
111 | A3G G8A G46A A65G U72A | 0.07
112 | A3G G8C A21G U43A G70A | 0.08
113 | A3G G8U A13U U41C U51A | 0.09
114 | A3G G8U A56U | 0.18
115 | A3G G8U U43C | 0.52
116 | A3G G9A A13C G24C U31A A35G | 0.44
117 | A3G G9A A65G U76A | 0.17
118 | A3G G9A C23U U51C | 0.07
119 | A3G G9A C32G U67C U78C U80G | 0.05
120 | A3G G9A G19U | 0.41

Row | Variant | self-cleavage
121 | A3G G9A G24A G33U C50A U51C | 0
122 | A3G G9C A13G A64G | 0.14
123 | A3G G9C A21G U51C | 0.03
124 | A3G G9C A28G C62G | 0.31
125 | A3G G9C G30A U67A U69C U80C | 0.06
126 | A3G G9C G33C U51A C68U U69A A75G | 0.06
127 | A3G G9U U26G U67C | 0.27
128 | A3G G10A A28G U41A A56C U58C U60A | 0.22
129 | A3G G10A C32G | 0.31
130 | A3G G10A C59G | 0.08
131 | A3G G10A G30A A64G U74A | 0.27
132 | A3G G10C A15C U41A U48C | 0.49
133 | A3G G10C A15U U26A C38U U48C A65G | 0.13
134 | A3G G10C A64U | 0.38
135 | A3G G10U C39A A75G | 0.21
136 | A3G G16A A28G U80C | 0.25
137 | A3G G16A G24A U25A C44U | 0.36
138 | A3G G16C A28G U41A U43A U49C | 0.11
139 | A3G G16C C27A U67C | 0.25
140 | A3G G16C G53A | 0.47
141 | A3G G16U A21G | 0.16
142 | A3G G16U C37U U60A | 0.09
143 | A3G G19A G33C | 0.37
144 | A3G G19A U26C U49C | 0.08

Row | Variant | self-cleavage
145 | A3G G19U U25C U41C | 0.32
146 | A3G G22A U25C U58A U74A | 0.33
147 | A3G G24A A28G U43C A56G U80C | 0.12
148 | A3G G24A A28U A56U A64G U78C | 0.07
149 | A3G G24A U25C A35G U41C | 0.09
150 | A3G G24A U76C | 0.23
151 | A3G G24C A45G U51A | 0.18
152 | A3G G30A A47G | 0.38
153 | A3G G30A U60C A65C A77G | 0.22
154 | A3G G30U G53A U60C U66C | 0.14
155 | A3G G33A C37U | 0.41
156 | A3G G33A G36A U58A U60C U74C | 0.09
157 | A3G G33A U54G A57G U60C U69C | 0.09
158 | A3G G33A U69A | 0.07
159 | A3G G36A U49G A56U U80A | 0.16
160 | A3G G46U U49C U80G | 0.1
161 | A3G G52U A77G U78A | 1.27
162 | A3G G53A U74C | 1.26
163 | A3G G73U U76C | 1.2
164 | A3G U25A A28G C29G U49C U58C A65G | 0.11
165 | A3G U25A C44U U72C | 0.08
166 | A3G U25A G61A | 0.16
167 | A3G U25A U26C A75U | 0.65
